Variants at the background level are over-represented here.
B1: tRNA (parent)
chain: CUCUCGGUAGCCAAGUUGGUUUAAGGCGCAAGACUUUAAUUUAUCACUACGAAAUCUUGAGAUCGGGCGUUCGACUCGCCCCCGGGAGAUUUUUUCCUCGAGCAA

Variants of: B1
Assay: nonsense suppression (GFP-seq) (ratio to wild type); higher = more function; SUP4oc tRNA, yeast GFP reporter sort-seq
How it was run: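 To measure nonsense suppression, tRNA variants from a library carrying ~3% random mutations were integrated into the yeast genome alongside RFP and a GFP ochre reporter under galactose control. Growth took place in raffinose/galactose medium supplemented with 80 mg/L adenine, followed by sorting into GFP/RFP bins and Illumina sequencing of each bin (phred ≥30). For each variant with ≥100 reads and ≥30 cells, the bin median GFP/RFP values were weighted by its estimated cell share per bin and referenced to the unmutated parent tRNA.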

Point of comparison: A13G C29A, nonsense suppression 0.03. Against it:
- A14C A33G U35G G59C G65A — lower, ≤ 0.026
- A13U A62C U71A C79A A87G — lower, ≤ 0.026
- A14C C75U U76A — lower, ≤ 0.026
- A13G C34U G61U C80G — lower, ≤ 0.026
- A13U A23G U35G U55C C80G — lower, ≤ 0.026
- A13U C72U — lower, ≤ 0.026
- A13U U21G A33G — lower, ≤ 0.026
- A13U A24C A30U U55A C80U A87C — lower, ≤ 0.026
- A13G U17G U76C — lower, ≤ 0.026
- A13G A74G — lower, ≤ 0.026
- A13G C77G — lower, ≤ 0.026
- A13U G19C U21G A24U C83U G86C — lower, ≤ 0.026
- A13U C34G — lower, ≤ 0.026
- A13U U21C A24C G66A A89G — lower, ≤ 0.026
- A13G G32C A33C G59A A62C U76A G84U — lower, ≤ 0.026
- A14C G18A C34U — lower, ≤ 0.026
- A13U C29A A62G — lower, ≤ 0.026
- A13G G19A — lower, ≤ 0.026
- A13U U71C — lower, ≤ 0.026
- A13U U71A — lower, ≤ 0.026
- A13U U55C G59U — lower, ≤ 0.026
- A13U U76C G84U G86C — lower, ≤ 0.026
- A13U A74U C77A C80G — lower, ≤ 0.026
- A13U A62C — lower, 0.029
- A14C A30C U58G G59A C80G C81A — lower, ≤ 0.026
- A13U C27U A60C G78A — lower, ≤ 0.026
- A13U G61C — higher, 0.191
- A13U C34U C81G — lower, ≤ 0.026
- A14C C56U — lower, ≤ 0.026
- A13G C27A A31U U55C C75U — lower, ≤ 0.026
- A13U G66U C68A G73C — lower, ≤ 0.026
- A13G G67A G85U A87G — lower, ≤ 0.026
- A13G G28U U35C — lower, ≤ 0.026
- A13U A23G G59C C77A — lower, ≤ 0.026
- A13U G18C G19U — lower, ≤ 0.026
- A13G C56G U71G — lower, ≤ 0.026
- A13G U21G C77U — lower, ≤ 0.026
- A13U G25C G67A G85U — lower, ≤ 0.026
- A14C A30G C72U — lower, ≤ 0.026
- A13G A87G — higher, 0.14
- A13G C83A — lower, ≤ 0.026
- A13G U20G A62G C81U — lower, ≤ 0.026
- A13U C82G — lower, ≤ 0.026
- A13U U57C — lower, ≤ 0.026
- A14C A62C G67U — lower, ≤ 0.026
- A14C A60U C68U — lower, ≤ 0.026
- A13U A62G A89U — lower, ≤ 0.026
- A13G A54C G69U G86U — lower, ≤ 0.026
- A13U U22G A31C A33G — lower, ≤ 0.026
- A13G U17C U70A C82A C83G — lower, ≤ 0.026
- A13U U21A A60G — lower, ≤ 0.026
- A13U G26C A31G A33G G67A G85U — lower, ≤ 0.026
- A14C C64A — lower, ≤ 0.026
- A13U G19C U21G C27A C34G A62C — lower, ≤ 0.026
- A14C C72A — lower, ≤ 0.026
- A13U G18A — lower, ≤ 0.026
- A13U A33U U63G — lower, ≤ 0.026
- A13G G28A U63C — lower, ≤ 0.026
- A14C C68A G73C — lower, ≤ 0.026
- A13U G32C C56G C75U — higher, 0.912
- A13G U22C U55C G85C — lower, ≤ 0.026
- A13U A23U — higher, 0.0855
- A14C G18A C29U — lower, ≤ 0.026
- A13U G32A C34U U63C — lower, ≤ 0.026
- A13G C81A A87G — lower, ≤ 0.026
- A14C A30C U35C — lower, ≤ 0.026
- A13G G18U A23C A54U A60U G66A — lower, ≤ 0.026
- A13G U57A — lower, ≤ 0.026
- A14C A33U U35C C80U — lower, ≤ 0.026
- A14C A33C — lower, ≤ 0.026
- A13G U35A — lower, ≤ 0.026
- A13U G84C — lower, ≤ 0.026
- A13U C75U — higher, 1.22
- A13U G78U — higher, 0.236
- A13U A30U A87U — lower, ≤ 0.026
- A13G G73U C79A — lower, ≤ 0.026
- A13U C29G A74G — lower, ≤ 0.026
- A13U U16C U71C — lower, ≤ 0.026
- A14C A23C — lower, ≤ 0.026
- A13U G28U A89C — lower, ≤ 0.026
- A13U A30U — higher, 0.0763
- A13U A30C — lower, ≤ 0.026
- A13U G88C — lower, ≤ 0.026

— the RNAGym collection of RNA variant scans (doi:10.1101/gad.245936.114)
